From PubChem BioAssay AID1347043 (National Center for Advancing Translational Sciences (NCATS), 2019)
Among all 76,000 compounds or so, about 1,900 (2.5%) were called active. The inconclusive results got no clear call from the source; some entries with a clear call stand among them for comparison. Calls follow the shape of the dose curve; as a rule, active = well fitted inhibition curve with a large enough effect; inconclusive = small, poorly fitted or top-dose-only effect; inactive = flat fitted curve, though single readings scatter. A potency beside an inconclusive call is a rough fit, not a confirmed value.

These compounds were tested against Luciferin 4-monooxygenase (Photinus pyralis) (UniProt P08659) (assay: Firefly luciferase inhibition profiling of diverse chemical library using quantitative high-throughput screening). Settings: purified P. pyralis luciferase, luminescence, biochemical; series mostly up to 115 µM.
UniProt P08659, sequence (P08659 whole entry, looked up): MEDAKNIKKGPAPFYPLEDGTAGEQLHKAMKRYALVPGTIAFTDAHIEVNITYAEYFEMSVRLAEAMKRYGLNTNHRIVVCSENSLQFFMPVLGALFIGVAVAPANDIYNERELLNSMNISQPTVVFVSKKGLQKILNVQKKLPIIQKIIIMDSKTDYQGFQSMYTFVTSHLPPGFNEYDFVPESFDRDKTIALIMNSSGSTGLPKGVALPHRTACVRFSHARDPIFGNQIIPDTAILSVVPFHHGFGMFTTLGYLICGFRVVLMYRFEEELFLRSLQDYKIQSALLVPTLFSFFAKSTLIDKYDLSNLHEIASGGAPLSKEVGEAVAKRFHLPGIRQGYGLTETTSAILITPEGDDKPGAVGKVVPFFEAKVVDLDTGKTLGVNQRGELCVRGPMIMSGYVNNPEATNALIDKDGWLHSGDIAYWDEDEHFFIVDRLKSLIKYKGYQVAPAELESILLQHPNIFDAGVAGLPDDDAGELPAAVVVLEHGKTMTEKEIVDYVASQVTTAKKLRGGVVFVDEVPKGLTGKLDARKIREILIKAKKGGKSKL
Outline: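 Inhibitors were tested against purified firefly luciferase in a biochemical, low-substrate format (both substrates at 10uM) and luminescence measured with a CCD imager.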
Also: nearly all actives have a fitted effect of over 65% in size.
Potency is read from the fitted curve at half-maximal effect; tags tell the direction and shape of the fitted curve.

Row | Compound | Potency
1 | COc1ccc(C(=O)Nc2ccc3c(c2)CN(CCc2ccccc2)C(=O)C(C)O3)cc1OC (stereo unspecified) | inconclusive: 22.4 µM [inhibitor, partial curve]
2 | CN(C)c1cccc(C(=O)NC2CCN(c3cc(-c4ccc(Cl)cc4)[nH]n3)C2)c1 (stereo unspecified) | active: 12.6 µM
3 | CN(Cc1ccc(-c2ccccc2)cc1)C(=O)C1CC1 | active: 50.1 µM
4 | Cc1cccc(NC(=O)N2CCC(CCOc3ccc(F)cc3)C2)c1 (stereo unspecified) | inconclusive: 35.5 µM [inhibitor, partial curve]
5 | CC(C)N1C(=O)C(CC(=O)Nc2cccc(OC(F)(F)F)c2)=C2CCCCC21 (stereo unspecified) | inactive
6 | O=C(Nc1ccc(Oc2ccccc2)cc1)O[C@@H]1CO[C@H]2[C@@H]1OC[C@@H]2NS(=O)(=O)c1cccs1 | inconclusive: 50.1 µM [inhibitor, partial curve]
7 | Cc1cnc(CC2CCN(C(=O)c3nn(C)c4ccccc34)C2)n1CC1CC1 (stereo unspecified) | inconclusive: 56.2 µM [inhibitor, partial curve, poor fit]
8 | O=C(Nc1cc(F)cc(F)c1)C1CCN(C(=O)c2ncn3c2COC(c2ccc(F)cc2)C3)CC1 (stereo unspecified) | active: 35.5 µM
9 | COc1ccc(NC(=O)O[C@@H]2CO[C@H]3[C@@H]2OC[C@@H]3NC(=O)Nc2cccc(C#N)c2)cc1 | inactive
10 | Fc1ccccc1-c1noc(NCc2ccccc2)n1 | active: 28.2 µM
11 | O=C(NCCc1ccccn1)c1ccc2c(c1)N(S(=O)(=O)c1ccccc1)CC2 | inconclusive: 44.7 µM [inhibitor, partial curve]
12 | COc1ccc(C(=O)N(C)C2CCCc3ccccc32)cc1 (stereo unspecified) | inconclusive: 44.7 µM [inhibitor, partial curve]
13 | Cc1cnc(NC(=O)c2ccc3c(c2)OCCN(CCC(F)(F)F)C3)s1 | inconclusive: 17.8 µM [inhibitor, full curve]
14 | CCOc1ccc(CC(=O)N2CCN(c3cc(-c4ccccc4)[nH]n3)CC2)cc1 | inactive
15 | COc1cc(CNC(=O)c2cc(-c3ccc(F)cc3)cc3ncn(C)c23)ccn1 | inconclusive: 70.8 µM [inhibitor, partial curve]
16 | OCc1ccc(CN2C[C@H](O)C[C@H]2c2nc(-c3ccc(F)cc3)no2)o1 | active: 44.7 µM
17 | CCCn1cc(-c2ccncc2)cc1C(=O)NCc1ccc(OC)cc1 | inconclusive: 35.5 µM [inhibitor, partial curve]
18 | COC1C(=O)N(c2cccc(F)c2)C12CCN(S(=O)(=O)c1c(C)nn(C)c1C)CC2 (stereo unspecified) | inactive
19 | COc1ccc(C(=O)N2CCC(N3C(=O)C(O)C34CCCCC4)CC2)cc1F (stereo unspecified) | inactive
20 | CCCN(C)c1nccnc1OC1CCN(C(=O)c2ccn[nH]2)C1 (stereo unspecified) | active: 22.4 µM
21 | O=C(N[C@@H]1CN(C(=O)Cn2c(=O)oc3ccccc32)CC[C@@H]1CO)c1ccccc1 | inconclusive: 56.2 µM [inhibitor, partial curve, poor fit]
22 | Cc1ccc(OCCC2CCN(C(=O)Cc3c[nH]c4ccccc34)C2)cc1 (stereo unspecified) | inactive

Row | Compound | Potency
23 | Cc1cnc(C(=O)N2CCC(n3nccc3NC(=O)CCOc3ccccc3)CC2)cn1 | inconclusive: 50.1 µM [inhibitor, partial curve]
24 | Cc1ccsc1C(=O)NCCC1CCN(C(=O)Nc2cc(F)cc(F)c2)CC1 | inconclusive: 12.6 µM [inhibitor, full curve, poor fit]
25 | CSCC(=O)N[C@H]1CCN2C(=O)c3cc(-c4ccc5c(c4)OCO5)ccc3NC(=O)[C@H]12 | inconclusive: 35.5 µM [inhibitor, full curve]
26 | Cc1n[nH]c(C)c1C(N)C(=O)NCCN1CCCC1 (stereo unspecified) | inactive
27 | Cc1cccc(CC(=O)N2CCC(n3cc(-c4nc(-c5ccccc5)no4)nn3)C2)c1 (stereo unspecified) | inconclusive: 39.8 µM [inhibitor, partial curve]
28 | COCc1cn([C@H]2CO[C@H]3[C@@H]2OC[C@H]3OC(=O)Nc2cccc(C#N)c2)nn1 | inconclusive: 70.8 µM [inhibitor, partial curve]
29 | CCCCc1cc(C[C@@H]2C[C@H](NC(=O)C3CC3)C2(C)C)no1 | inconclusive: 112 µM [inhibitor, single point]
30 | Cn1c2c(c3cc(F)ccc31)CN(C(=O)Nc1cccc(Cl)c1)CC2 | inconclusive: 28.2 µM [inhibitor, full curve]
31 | Fc1ccc(-c2noc([C@@H]3Cc4nc[nH]c4CN3Cc3cccs3)n2)cc1Cl | active: 56.2 µM
32 | O=C(N[C@@H]1CN(c2ccncn2)C[C@H]1CO)c1cccc(Cl)c1 | inactive
33 | Cc1cc(CNC(=O)C(C)Cn2nc(C)nc2C)c2[nH]c(-c3ccccc3)c(C)c2c1 (stereo unspecified) | active: 20 µM
34 | CN1CC(=O)N(C2CCC2)Cc2c(NCc3ccccc3)ncnc21 | inactive
35 | Cn1cccc1C(=O)NC1CCCN(c2cc(-c3ccc(Cl)cc3)[nH]n2)C1 (stereo unspecified) | inconclusive: 35.5 µM [inhibitor, partial curve]
36 | Clc1ccc(C2Cn3nnc(-c4nc(-c5ccccn5)no4)c3CO2)cc1 (stereo unspecified) | inconclusive: 39.8 µM [inhibitor, partial curve]
37 | CC(=O)N1CCC(COc2ccc3c(cnn3CC[S+](C)(=O)[O-])c2)CC1 | inconclusive: 112 µM [inhibitor, single point]
38 | O=C(O)c1ccc(-c2nnc3ccc(NC(=O)C4CCC4)cn23)cc1 | active: 10 µM
39 | COCc1ccc(C(=O)NCC2COc3c(cccc3OC)C2)s1 (stereo unspecified) | inconclusive: 35.5 µM [inhibitor, partial curve]
40 | C=CCN(Cc1cnc(-c2cccc(C)c2)nc1)Cc1ccccn1 | inconclusive: 89.1 µM [inhibitor, partial curve, poor fit]
41 | COc1ccc(C(=O)NC2CCN(c3cc(C(F)(F)F)ncn3)CC2)cc1OC | inactive
42 | Oc1ccccc1CN1C[C@H](O)C[C@H]1c1nc(-c2ccc3c(c2)OCO3)no1 | inconclusive: 100 µM [inhibitor, partial curve]
43 | Cc1nn(C)cc1C(=O)NCCn1c(C)cnc1C1CCC1 | inactive
44 | O=C(CCCc1ccccc1)Nc1ccnn1C1CCN(C(=O)Cc2ccccc2F)CC1 | inconclusive: 50.1 µM [inhibitor, partial curve]

Row | Compound | Potency
45 | COc1ccc(-c2ccc3c(c2)C(=O)N2CC[C@H](NC(=O)CCC(=O)O)[C@H]2C(=O)N3)cc1 | inconclusive: 79.4 µM [inhibitor, partial curve, poor fit]
46 | COc1ccc2cc(CN3CCCC(C#N)C3)c(-c3cccs3)nc2c1 (stereo unspecified) | inconclusive: 44.7 µM [inhibitor, partial curve]
47 | Cc1ccc(NC(=O)N2C[C@H](c3nc(-c4cccnc4)no3)[C@@H](C)C2)cc1 | inconclusive: 50.1 µM [inhibitor, partial curve]
48 | COC1CCC12CCN(C(=O)Nc1ccccc1F)CC2 (stereo unspecified) | inconclusive: 56.2 µM [inhibitor, partial curve]
49 | O=c1n(-c2ccc([N+](=O)[O-])cc2)nc2n1CCN(Cc1ccsc1)C2 | inconclusive: 50.1 µM [inhibitor, partial curve]
50 | Cn1c(C(=O)N2CCNc3cnc(Nc4cccc(C(F)(F)F)c4)nc3C2)cc2ccccc21 | inactive
51 | Cc1ncc2n1C(=O)N(C1CCN(Cc3ccc(N(C)C)cc3)CC1)C2 | inactive
52 | N#Cc1cccc(-c2cn3c(n2)N(C(=O)c2ccoc2)CCC3)c1 | inconclusive: 35.5 µM [inhibitor, partial curve]
53 | Cc1ccc(NC(=O)Cn2ccn3nc4c(c3c2=O)CCCCC4)cc1 | inconclusive: 44.7 µM [inhibitor, partial curve]
54 | CNC(=O)c1cccnc1N1CCOC(c2ccc3cc(OC)ccc3c2)C1 (stereo unspecified) | inconclusive: 12.6 µM [inhibitor, full curve]
55 | Cc1nn(-c2cccc(Br)c2)c(C)c1[C@@H]1C=C[C@@H](NC(=O)CC(C)(C)CC(=O)O)C1 | inconclusive: 39.8 µM [inhibitor, partial curve]
56 | CCC(=O)N1CCN(c2nc3c(s2)CC(C(=O)O)CC3)CC1 (stereo unspecified) | active: 12.6 µM
57 | COc1ccc2c(c1)CCc1c-2n[nH]c1C(=O)N1CCc2c(nc3cc(-c4ccccc4)[nH]n3c2=O)C1 | inconclusive: 12.6 µM [inhibitor, full curve]
58 | O=c1cc(-c2ccncc2)oc2c(-c3ccccc3Oc3ccccc3)nccc12 | inactive
59 | O=C(Nc1ccc2[nH]ccc2c1)C1=NO[C@@H]2CN(c3ccccc3)C[C@H]12 | inconclusive: 31.6 µM [inhibitor, full curve]
60 | COc1ccc(-c2cc3c(=O)n(CCNC(=O)c4n[nH]c5c4CCCC5)ccn3n2)cc1 | inconclusive: 0.355 µM [inhibitor, full curve, poor fit]
61 | COCCNC(=O)CCc1c(C)nn(-c2cccc(C)c2)c1Oc1ccccc1C | inactive
62 | CCCNC(=O)N(C1CCOCC1)C1CCN(C(=O)c2cnccn2)CC1 | inactive
63 | O=C(NC1CCCCC1)N1Cc2[nH]cnc2C[C@H]1c1nc(-c2ccccc2)no1 | active: 44.7 µM
64 | COc1ccc(NC(=O)N[C@@H]2C=C[C@@H](c3c(C)nn(-c4ccc(C(C)(C)C)cc4)c3C)C2)cc1 | inconclusive: 39.8 µM [inhibitor, full curve, poor fit]
65 | Cc1c(-c2ccccc2F)[nH]c2ccc(CNC(=O)CCn3cnnc3)cc12 | inconclusive: 50.1 µM [inhibitor, partial curve, poor fit]
66 | O=C(NCCC1CCN(C(=O)Nc2ccc(F)cc2)CC1)c1ccc(F)cc1 | inconclusive: 44.7 µM [inhibitor, partial curve]
